The record followed here is ChEMBL document CHEMBL4888484, “Replenishing the malaria drug discovery pipeline: Screening and hit evaluation of the MMV Hit Generation Library 1 (HGL1) against asexual blood stage Plasmodium falciparum ,using a nano luciferase reporter read-out” (2022).

Screen size: about 150,000 compounds; about 540 (0.36%) showed an effect of 50% or more. Some of the results follow.

The assay concerns Plasmodium falciparum. As to the kind of experiment: Primary screen in NF54 nanoGlo assay, in single point, at 2uM, 72h; a lower Z score goes with more inhibition. It is filed as functional, Erythrocyte. As to conditions: timepoint 72 hour.
In general, % Inhibition refers to the relative decrease from the control value, in per cent. `Cc1nc(C)c(C)c(N2CCC[C@H]2c2ncc(Br)cn2)n1`: the “% Inhibition” value was -5% and the Z score is listed as 1.06.
On to `O=C(Cc1cccs1)NCc1nccnc1-c1cccnc1`, for which the “% Inhibition” value is recorded as -18% and the Z score worked out at 2.07.
As to `COc1cc(Br)c(S(=O)(=O)N[C@H](CN)CC(C)C)cc1Cl`, the “% Inhibition” value was -9% and the Z score was determined as 0.91.
In the same order, the values of `CN1CCN(C[C@H]2CCC3(CCN(S(=O)(=O)c4ccccc4Cl)CC3)O2)CC1` are -11% and 1.47.
For `Cn1cncc1C(=O)NC1(c2nc3ccccc3s2)COC1`, in that order: -6% and 0.92.
`Cn1c(N2CCC[C@H](S(=O)(=O)NC3CCCC3)C2)cccc1=O`: the “% Inhibition” value is -6% and the Z score is listed as 0.48.
For `Cc1ccc(C(=O)N2CCC3(CC2)COC(=O)N3)c(C(C)C)n1`, the “% Inhibition” value is recorded as -11% and the Z score is listed as 1.66.
As for `O=C(Cc1ccn[nH]1)N[C@H]1CCCOc2c1ccc1ccccc21`, the “% Inhibition” value is on record as 4% and the Z score was -0.8.
In the same order, the values of `O=C(Cn1cnnn1)NCc1ccc2c(c1)CCC2` are -44% and 5.16.
In the same order, the values of `CN(C(=O)c1csc(=O)[nH]1)[C@H]1CCN(c2ccccc2)C1=O` are -10% and 1.61.
Regarding `CC(C)c1nc(N2CCO[C@H](c3ccc(Cl)cc3)C2)no1`, the “% Inhibition” value stood at 4% and the Z score was -0.84.
In the same order, the values of `Cc1cc(C)nc(N2C(=O)c3ccc(C(=O)O)cc3C2=O)n1` are -9% and 1.12.
In the same order, the values of `CC1CN(C(=O)NC2CC(=O)N(c3ccccc3)C2)CC(C)O1` (centres undefined) are -2% and 0.29.
In the same order, the values of `Oc1ccccc1-c1nc(Oc2ccc3ccccc3c2)c2ccccc2n1` are -4% and 0.56.
Regarding `O=C1NC[C@H]2O[C@H](CCOc3cc(-c4ccccc4)ccc3C(=O)N3CCN(Cc4ccc(F)cc4)C[C@@H]13)CC[C@@H]2O`, the “% Inhibition” value was -8% and the Z score came to 1.15.
For `CN(C1CCCCC1)[C@@H](c1ccsc1)c1sc2ncnn2c1O`, in that order: 2% and -0.26.
In the same order, the values of `COc1cccc(-c2cc(-c3c(C)nn(C)c3C)nc(N3CC[C@H](N)C3)n2)c1` are -23% and 2.1.
Turning to `COc1ccc(C(=O)N2C[C@@H](Oc3ccccc3)C[C@@H]2C(=O)N2CCOCC2)cc1`, the “% Inhibition” value is on record as -8% and the Z score is given as 1.59.
With `O=C(Cc1ccn[nH]1)N[C@H]1CCN(c2ccc(F)c(Cl)c2)C1`, the “% Inhibition” value is -5% and the Z score came out at 0.55.
In the same order, the values of `NC(=O)Cn1ccnc1[C@H]1CCCN(c2ccnc3cc(Cl)ccc23)C1` are 11% and -1.65.
For `CCC(=O)N1CCC[C@H](N(CCCN2CCCC2)C(=O)C(C)C)C1`, in that order: -2% and 0.27.
As to `C[C@H]1CN(C)CCN1C(=O)c1ccccc1-n1cnnn1`, the “% Inhibition” value is listed as -5% and the Z score is 0.52.
For `CC(C)Cc1n[nH]c(-c2[nH]c3ccccc3c2Cl)n1`, in that order: -5% and 0.89.
Turning to `Cc1[nH]c(=O)[nH]c(=O)c1S(=O)(=O)N1CCC[C@H](C(=O)Nc2nccs2)C1`, the “% Inhibition” value is -12% and the Z score amounted to 1.54.
For `O=S(=O)(C1CCOCC1)N1CC2C3CCC(C3)C21` (centres undefined), in that order: -10% and 1.69.
For `Cc1[nH]nc(CCC(=O)N2CC=C[C@@H]2C(C)C)c1C`, in that order: -7% and 0.81.
For `CCN1C(=O)C[C@H](N2CCN(c3ncc(Br)cn3)CC2)C1=O`, in that order: 9% and -0.99.
In the case of `CCn1nccc1C(=O)N(Cc1ccncc1)Cc1ccc(C)s1`, the “% Inhibition” value is recorded as -14% and the Z score is 1.54.
For `O=C(c1ccc(F)c(O)c1)N1C[C@@H]2[C@H]3CC[C@H](CC3)[C@@H]2C1`, in that order: 0% and -0.05.
For `Cc1nn(-c2ccccc2)c2nc(Cc3ccccc3)nc(N3CCN(Cc4ccc(F)cc4)CC3)c12`, in that order: 8% and -1.24.
For `CCCc1nnc2sc([C@H]3CCC(=O)N(CC(C)C)C3)nn12`, in that order: 1% and -0.19.
Consider `CC1(C)C[C@]2(CCCN(Cc3nc4c(c(=O)[nH]3)C3(CCCC3)Cc3ccccc3-4)C2)CCO1`, for which the “% Inhibition” value was -4% and the Z score was 0.62.
For `Cn1cncc1C(=O)N1CCC[C@H]1CO`, in that order: -2% and 0.31.
Consider `C[C@H](NS(=O)(=O)c1ccc2c(c1)OCCO2)C(=O)N1CCCC1`, for which the “% Inhibition” value is -20% and the Z score amounted to 2.39.
For `CC(=O)c1cc(C(=O)NCc2cccnc2N2CCOCC2)[nH]n1`, the “% Inhibition” value came to 6% and the Z score was -1.25.
For `CCC(=O)NCCc1csc(C2CCN(C(=O)c3cc(C)ccc3C)CC2)n1`, the “% Inhibition” value is recorded as -6% and the Z score is 0.67.
For `CC(C)n1cc2cc(NC(=O)N(C)[C@@H](C)CO)ccc2n1`, in that order: 1% and -0.08.
Regarding `Nc1nnc(Cc2cccc3ccccc23)s1`, the “% Inhibition” value is -5% and the Z score came out at 0.7.
In the same order, the values of `COc1nccnc1CN1CC[C@H](O)C1` are -3% and 0.28.
In the same order, the values of `O=C(NCc1cc(-c2ccncc2)n(C2CCCC2)n1)[C@@H]1CC=CCC1` are -16% and 1.78.
For `Cc1cc(C(=O)N2C(C)CN(C(=O)C(C)(C)C)CC2C)c2ccccc2n1` (centres undefined), in that order: -11% and 1.66.
Turning to `COc1cc(NC(=O)N2CCN(C(=O)c3nsc4ccccc34)CC2)cc(OC)c1`, the “% Inhibition” value was 5% and the Z score is -0.93.
